Results as given in PubChem BioAssay AID1240 (Sanford-Burnham Center for Chemical Genomics, 2008).
The campaign covered roughly 50,000 compounds. About 800 (1.6%) showed an effect of 50% or more. This is one part of the list.

molecular target: Bcl-2-like protein 10 (Homo sapiens) (UniProt Q9HD36); test: Phenotype converters, Bcl-B/TR3 peptide binding displacement, primary biochemical FP (AID 1240); settings: GST-Bcl-B / FITC-TR3 peptide fluorescence polarization; stronger effect = higher value; compound at 3.75 mg/L;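 also: 0% = Bcl-B with tracer peptide and DMSO and 100% = tracer peptide lacking Bcl-B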
Sequence of UniProt Q9HD36 (Q9HD36 whole entry, looked up): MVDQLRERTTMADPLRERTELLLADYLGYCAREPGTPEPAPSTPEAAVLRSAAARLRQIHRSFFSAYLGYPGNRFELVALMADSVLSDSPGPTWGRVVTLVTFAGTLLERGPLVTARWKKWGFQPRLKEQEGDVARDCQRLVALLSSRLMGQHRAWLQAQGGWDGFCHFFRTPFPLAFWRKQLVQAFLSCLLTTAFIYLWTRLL

| SMILES | displacement [%] |
| --- | --- |
| COc1cc(/C=C2\C(=O)NC(=O)N(c3ccc(Br)c(C)c3)C2=O)cc([N+](=O)[O-])c1O | -6.2 |
| COc1cc(C(=O)N2CCN(Cc3cccc(Oc4ccccc4)c3)CC2)cc(OC)c1OC | 132 |
| COc1ccc(N(CC(=O)NCc2ccncc2)S(=O)(=O)c2ccc(OC)c(OC)c2)cc1 | 10.7 |
| COc1cccc(C(=O)/C=C/c2ccc(OC)cc2OC)c1 | -11.5 |
| O=C(NN1C(=O)/C(=C/c2c(Cl)cccc2Cl)SC1=S)c1ccccc1O | 43 |
| COC(=O)c1c(NC(=O)c2cccc(OC)c2)sc2c1CCCC2 | 2.5 |
| O=C(Cc1ccc(Cl)cc1)NN1C(=O)c2ccccc2C1=O | -7.2 |
| COc1ccc(/C(N)=N/OC(=O)c2ccc(C(C)(C)C)cc2)cc1OC | 3.7 |
| Cc1ccc(OCCOc2ccc(Cl)cc2C=C2C(=O)NC(=S)NC2=O)cc1 | -7.7 |
| CCOc1ccc(N(CC(=O)Nc2cc(C)ccc2C)S(C)(=O)=O)cc1 | -4.1 |
| O=C(O)CCC1NC(=S)N(c2ccccc2)C1=O (stereo unspecified) | 3.1 |
| COc1ccc(/C=C2\C(=O)NC(=O)N(c3ccccc3)C2=O)c(C)c1 | 17.2 |
| Cc1ccc[n+](C[n+]2cccc(C)c2)c1 | 5.3 |
| COc1cc(/C=C2/C(=O)NC(=O)N(c3ccc(C(C)C)cc3)C2=O)cc(OC)c1O | -7.9 |
| CCOC(=O)C1=C(C)N=c2s/c(=C/c3cccc([N+](=O)[O-])c3)c(=O)n2C1c1ccccc1Cl (stereo unspecified) | 10.2 |
| Cc1ccc(N2C(=O)NC(=O)/C(=C\c3ccc(OCc4cccc(C(=O)O)c4)cc3)C2=O)cc1 | 5.5 |
| O=C(CCN1C(=O)c2cccc([N+](=O)[O-])c2C1=O)NCC1CCCO1 (stereo unspecified) | -3.9 |
| Cc1ccc(C2CC(C(F)(F)F)n3ncc(C(=O)Nc4cccc(Cl)c4)c3N2)cc1 (stereo unspecified) | 4.5 |
| O=C(CCc1ccccc1O)N/N=C/c1cc([N+](=O)[O-])ccc1N1CCOCC1 | -12 |
| CCOC(=O)CCCSc1nc2sc3c(c2c(=O)n1-c1ccccc1)CCCC3 | -2.8 |
| O=C(NC(=S)Nc1sc2c(c1C(=O)O)CCC2)c1ccccc1 | 5.3 |
| Cc1ccccc1-c1nnc(NC(=O)Nc2ccccc2)s1 | 12 |

| SMILES | displacement [%] |
| --- | --- |
| CN1CCN(c2ccc([N+](=O)[O-])cc2/C=N/NC(=O)c2cccc([N+](=O)[O-])c2)CC1 | -14.6 |
| COc1ccc(Cl)cc1NC(=O)C(=O)NCc1ccc(C)cc1 | -7.7 |
| Cc1nonc1NC(=O)CN1CCCC1 | 15 |
| O=C1CC(c2ccccc2)CC2=C1C(c1ccco1)Nc1ccccc1N2 (stereo unspecified) | 10.8 |
| O=C(O)C1C(C(=O)Nc2ccccc2F)C2C=CC1C21CC1 (stereo unspecified) | -4.5 |
| CCOc1ccc(NC(=O)c2c(NC(=O)c3ccc([N+](=O)[O-])cc3)sc3c2CCC3)cc1 | 10.6 |
| COc1ccc(NC(=O)c2ccc(CN3CCN(Cc4ccccc4)CC3)cc2)c(OC)c1 | 7 |
| COc1ccc2ccccc2c1/C=C1\SC(=S)N(Cc2ccccc2)C1=O | -4 |
| Cc1occc1C(=O)N/N=C/C1CC=CCC1 (stereo unspecified) | 0 |
| Cc1ccc(C(=O)N/C(=C\c2ccc(Cl)cc2)C(=O)NCc2ccncc2)cc1 | 7.1 |
| C=CCN1C(=O)NC(=O)/C(=C/c2ccc(OC)c(OCc3ccc(Cl)cc3)c2)C1=O | 2.5 |
| Cc1ccc2c(c1)NC(c1ccc(Cl)cc1)C1=C(CC(C)(C)CC1=O)N2 (stereo unspecified) | 0.9 |
| O=C(NCCN1CCOCC1)c1cc(-c2ccc(Cl)cc2)nc2ccccc12 | 0.8 |
| CN(C)c1cccc(NC(=O)c2ccccc2-c2ccccc2)c1 | 4 |
| O=[N+]([O-])c1ccc(COc2ccc(/C=N/Nc3nc4ccccc4s3)cc2)cc1 | 3.8 |
| COc1ccccc1NC(=O)c1c(NC(=O)c2cc([N+](=O)[O-])ccc2Cl)sc2c1CCCC2 | 13.8 |
| COc1cc(NS(=O)(=O)c2ccc(Cl)cc2)cc(OC)c1 | 41.2 |
| CCN1C(=O)/C(=C/c2ccc(OC(=O)c3cccc(C)c3)c(OC)c2)SC1=S | 11.6 |
| CCOc1ccc(N(Cc2ccc(C(=O)NC(C)CC)cc2)S(=O)(=O)c2ccc(C)cc2)cc1 (stereo unspecified) | -5.2 |
| CC(C)(C)SCC(O)Cn1c2ccccc2c2ccccc21 (stereo unspecified) | -4.7 |
| CCC(=O)Oc1cc2oc(=O)cc(C)c2cc1CC | -3.8 |
| C/C(=N\N=C(/N)SC1CC(=O)N(c2cccc(Cl)c2)C1=O)c1ccc(F)cc1 (stereo unspecified) | -19.2 |

| SMILES | displacement [%] |
| --- | --- |
| CCOC(=O)c1ccc(NCCC(=O)c2cccs2)cc1 | -12.3 |
| N#C/C(=C\c1cc([N+](=O)[O-])c(N2CCOCC2)cc1N1CCOCC1)c1nc2ccccc2[nH]1 | 6.9 |
| COc1ccc(OC)c(/C=C/C(=O)NCC2CCCO2)c1 (stereo unspecified) | 11 |
| O=[N+]([O-])c1ccc(N2CCN(S(=O)(=O)Cc3ccccc3)CC2)c(Cl)c1 | 9.1 |
| CCc1cccc(C)c1NC(=O)c1cccc(C)c1 | -12.3 |
| CCOc1ccc(N2C(=O)/C(=C/c3ccc(OCc4cccc(C(=O)O)c4)cc3)C(=O)NC2=S)cc1 | 10.7 |
| COc1ccc(C2=C/C(=C/c3ccc(I)o3)C(=O)O2)cc1 | 44.1 |
| CN1C(=O)/C(=C2\SC(=S)N(CC(=O)O)C2=O)c2ccccc21 | 17.9 |
| Cc1ccc(CN2CCN(/N=C\c3cccc([N+](=O)[O-])c3)CC2)cc1 | -8.4 |
| Cc1ccc(NC(=O)c2ccc(I)cc2)cc1Cl | 9.1 |
| Cc1cc(I)ccc1NC(=O)c1cccnc1 | -10.7 |
| S=c1oc(-c2ccccc2Cl)nn1CNc1ccccc1Cl | -23.2 |
| CC(C)(C)C(=O)Nc1sc2c(c1C(=O)Nc1cccc3ccccc13)CCC2 | -5.2 |
| C=CCSc1nnc(-c2ccccc2)o1 | -9.3 |
| CCO/N=C(\c1nonc1N)N1CCOCC1 | 4.2 |
| O=S(=O)(Nc1ccccc1)c1ccc2c(c1)OCCO2 | -10.1 |
| O=S(=O)(CCc1nc2ccccc2o1)c1ccc2ccccc2c1 | -13.2 |
| COc1ccccc1C(=O)N/N=C/c1ccc(N2Cc3cc(C)c(C)cc3C2)cc1 | -3.4 |
| COc1ccc(S(=O)(=O)n2cnc3ccccc32)cc1OC | 0 |
| CCOc1nc(-c2ccccc2)c2cc(Cl)ccc2n1 | -1.9 |
| O=C(Nc1cccc(F)c1)[C@H]1CC=CC[C@H]1C(=O)O | 9.1 |
| CCn1c2c(c3cc(C(C)(C)C)ccc31)CCCC2=O | -5.1 |

| SMILES | displacement [%] |
| --- | --- |
| O=C(O)CCCCCN1C(=O)C(O)=C(C(=O)/C=C/c2ccccc2)C1c1ccccc1 (stereo unspecified) | 4.7 |
| COc1ccc(OCc2ccccc2)c(C=O)c1 | -3.2 |
| CCOC(=O)c1c(NC(=O)c2ccco2)sc(C(=O)Nc2ccc(OC)cc2OC)c1C | -12.9 |
| COc1cc(C(=O)N/C(=C/c2ccc(Br)cc2)C(=O)NC(Cc2ccccc2)C(=O)O)cc(OC)c1OC (stereo unspecified) | 7.8 |
| COc1ccc(C(=O)CC(c2cccs2)S(=O)(=O)c2ccccc2)cc1 (stereo unspecified) | 17.9 |
| O=C(NCc1ccc2c(c1)OCO2)c1sc2ccccc2c1Cl | -6 |
| COc1cccc(C2NC(=S)NC(C)=C2C(=O)Nc2cccc(Cl)c2)c1 (stereo unspecified) | -14 |
| Cc1ccc(-n2nc3ccc(NC(=S)NC(=O)c4ccco4)cc3n2)cc1 | 9 |
| CCOc1ccc(N(CC(=O)Nc2ccc(C)cc2C)S(C)(=O)=O)cc1 | -4.2 |
| Cc1ccc(C(=O)Nc2cc(C)on2)cc1 | 7.7 |
| CCOC(=O)C1=C(CC)NC2=C(C(=O)CC(C)(C)C2)C1c1ccc(Cl)cc1Cl (stereo unspecified) | 10.8 |
| COC(=O)c1ccc(COc2ccc3c4c(c(=O)oc3c2)CCC4)cc1 | 8.5 |
| Oc1c(Cl)cc(Br)cc1/C=N/Nc1nc(N2CCOCC2)nc(N2CCOCC2)n1 | 9.3 |
| COc1cc(C2C3=C(CC(C)(C)CC3=O)OC3=C2C(=O)CC(C)(C)C3)cc(Br)c1OC | 2.8 |
| Cc1ccc(C=C2C(=O)N(C)C(=S)N(c3ccccc3)C2=O)s1 | 6.8 |
| Cc1cccc(N/C=C/C(=O)c2ccc(Cl)cc2)c1 | -2.2 |
| O=C(CN1CCOCC1)Nc1ccc(-c2nc3cc(NC(=O)CN4CCOCC4)ccc3o2)cc1 | -4.6 |
| O=C1NCCCc2nc(N3CCOCC3)sc21 | -2.6 |
| CN(C)c1ccc(C2CC(c3cccs3)=NN2C(=O)CCC(=O)O)cc1 (stereo unspecified) | -17.8 |
| COc1ccc(/C=N/N(C)CCN(C)/N=C/c2ccc(OC)cc2)cc1 | 1.2 |
| COc1ccccc1NC(=O)C(=O)NCc1ccccc1 | 11.6 |
| CC(/C=N/N1CCN(Cc2ccc(C)cc2)CC1)=C\c1ccco1 | 9.8 |

| SMILES | displacement [%] |
| --- | --- |
| CC1CCOP(=O)(C(Nc2ccc([N+](=O)[O-])cc2)c2ccc(Br)cc2)O1 (stereo unspecified) | -15.1 |
| Cc1[nH]n(-c2ccccc2)c(=O)c1/C=N/Nc1ccccn1 | -21.3 |
| CCOC(=O)CC1CSc2nc3sc(C)c(C)c3c(=O)n21 (stereo unspecified) | -9.2 |
| O=C(Nc1cccnc1)c1ccc(-c2ccc(Br)cc2)o1 | -5.1 |
| O=C(NC1CCCCCC1)c1ccc(Cl)c([N+](=O)[O-])c1 | -8 |
| O=C(c1ccccc1F)N1CCN(C2CC3CCC2C3)CC1 (stereo unspecified) | -2.6 |
| COC(=O)C1=CN(Cc2cccs2)C=C(C(=O)OC)C1c1ccc(C(F)(F)F)cc1 | 0 |
| O=C(Nc1cccc(-c2nc3ccccc3s2)c1)c1cccs1 | 6.6 |
| CC(=O)N(C)CP(=O)(O)CCc1ccccc1 | 15.4 |
| O=[N+]([O-])c1cc(C(F)(F)F)ccc1Sc1ccccn1 | -10.8 |
| COc1ccc(-c2cc(C(=O)Nc3c(C)cccc3C)c3ccccc3n2)cc1 | 11.8 |
| Cc1ccc(S(=O)(=O)N2CCN(Cc3ccccn3)CC2)cc1 | -20.2 |
| O=C(NC12CC3CC(CC(C3)C1)C2)C1CC(=O)N(c2ccccc2)C1 (stereo unspecified) | 10.8 |
| CC(C)C(NS(=O)(=O)c1ccccc1[N+](=O)[O-])C(=O)NC(C)(C)C (stereo unspecified) | 7.1 |
| O=C1C(Cc2ccccc2)S/C(=N/N=C/c2ccco2)N1c1ccccc1 (stereo unspecified) | 8.7 |
| COc1ccc(/C=C/C(=O)Nc2ccc(N3CCOCC3)cc2)cc1OC | 0.9 |
| CCN(CC)CCCCCOc1ccc(OC)cc1 | 3.7 |
| Cc1c(Cl)cccc1-c1ccc(C(=O)Nc2cccc(NC(=O)c3cccc(Cl)c3)c2)o1 | 1.8 |
